PubChem BioAssay (NCI)
Several values for one entry are separate records, joined by “and”; a condition that tells them apart may be missing. Equal entries are not always repeated.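 1) Cells in 96-well plates. 2) Compound, 48 h, 5 concentrations. 3) Linear interpolation between surrounding doses. 4) Unreached endpoint = highest concentration. GI50 is the concentration that inhibits growth by half. At the TGI there is no net growth.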

tested on: NCI-H322M lung; test: NCI tumour cell line growth inhibition, 48 h

| Structure (SMILES) | TGI | GI50 |
| --- | --- | --- |
| COC(=O)N[C@H]1C=C[C@@H]2/C=C(C)/C=C/[C@@H](C)[C@H]([C@H](C)[C@H](O)[C@@H](C)NC(C)=O)OC(=O)/C=C/C=C(C)\C=C\[C@]2(C)C1 | > 45.3 µM | – |
| CCN(CC)c1c(C(=O)/C=C/c2ccc(F)cc2)c(-c2ccccc2)nn(C)c1=O | 17.7 µM | – |
| CC(CO)CCC(O)C(C)(O)C1CCC2(O)C3=CC(=O)C4CC(O)C(O)CC4(C)C3CCC12C (stereo not given) | > 100 µM | – |
| CC[C@@]1(C[C@H]2C[C@@]3(C(=O)OC)c4[nH]c5ccccc5c4CCN3C2=S)COC2(CCCCC2)O1 | > 100 µM | – |
| CC(NC(=O)OC(C)(C)C)C(=O)NC1CCCC1 (stereo not given) | > 100 µM | – |
| CCNC(=O)N1CCc2c(Cl)c3c(c(OC)c2[C@@H]1[C@H]1OCc2c1ccc(OC)c2OC)OCCO3 | > 100 µM | 4.52 µM |
| C#CCNCCCN1C(=O)c2ccc3c4c(ccc(c24)C1=O)C(=O)N(CCCNCC#C)C3=O | 0.64 µM | 0.201 µM |
| CN(C)CCNc1ccc2nnn3c4ccc(O)cc4c(=O)c1c23 | 10.7 µM | – |
| O=C(OCc1ccccc1)c1nc2ccccc2n1S(=O)(=O)c1ccccc1 | > 100 µM | – |
| Cn1cc(-c2csc(-c3c[nH]c4ccccc34)n2)c2cccnc21 | 48.5 µM | 0.794 µM |
| O=S(=O)(Nc1nc2ccccc2n1S(=O)(=O)c1ccccc1)c1ccccc1 | > 100 µM | – |
| COc1cc2c3c(n(CCCN)c(=O)c2cc1OC)-c1ccc(N(C)C)cc1C3=O | 33.1 µM | 17.6 µM |
| CCCCC1(C2c3ccccc3Oc3ccccc32)C(=O)N(c2ccccc2)N(c2ccccc2)C1=O | > 100 µM | – |
| CCNCCNc1cc(-c2ccc(Cl)c(Cl)c2)c(C#N)c2nc3ccccc3n12 | 3.3 µM | 1.76 µM |
| Cc1ccc(S(=O)(=O)NC2CCCCO2)cc1 (stereo not given) | > 100 µM | – |
| CC(=O)/C(=C\c1c(-c2ccccc2)[nH]c2ccccc12)S(C)(=O)=O | > 100 µM | 9.13 µM |
| CC(C)(C)OC(=O)N(CCCN)CCCCN | > 100 µM | – |
| CCCCCC[n+]1noc(N)c1-c1ccc(-c2c(N)on[n+]2CCCCCC)cc1 | 28.7 µg/mL | 15 µg/mL |
| Cc1oc2c(cc(O)c3ccccc32)c2cccc1-2 | > 100 µM | – |
| COc1cc2c(cc1OCCCC(=O)Nc1cc(C(=O)Nc3cc(C(=O)Nc4cc(C(=O)NCCCN(C)C)n(C)n4)n(C)c3)n(C)c1)N=CC1CCCN1C2=O (stereo not given) | > 100 µM | – |
| O=C(NNC(=O)c1ccccc1S)c1ccccc1S | 25 µM and > 100 µM | 51.6 µM |
| Nc1nc2c3c(ncn3CC(O)CO2)n1 (stereo not given) | > 100 µM | – |
| COc1ccc(/C=C(/C(=O)N2CCCCC2)c2cc(OC)c(OC)c(OC)c2)cc1 | > 100 µM | 2.8 µM |

| Structure (SMILES) | TGI | GI50 |
| --- | --- | --- |
| CC1=CC(C)C(C)N(CC2=NCCN2)c2ccccc21 (stereo not given) | > 100 µM | – |
| CCOC(=O)C1=C(C)N2CCOC2(C)C(C(=O)OC)C1c1cccc(Cl)c1 (stereo not given) | > 100 µM | – |
| COc1ccc(/C=C/C(=O)Nc2cc(/C=C\c3cc(OC)c(OC)c(OC)c3)cc(OC)c2OC)cc1OC | > 100 µM | 4.66 µM |
| O=c1cc(-c2ccccc2)[nH]c2ccc(N3CCCC3)cc12 | > 71.3 µM | – |
| COC(=O)[C@]1(C)CCC[C@]2(C)C3CC4OOC3(C=C4C(C)(C)O)CCC21 (stereo not given in full) | > 100 µM | – |
| CS(=O)(=O)Nc1ccc2c(c1)N(S(C)(=O)=O)CC2COS(C)(=O)=O (stereo not given) | > 100 µM | – |
| O=Cc1cn(Cc2ccccc2)c2ccccc12 | > 100 µM | 13.7 µM |
| CN(C)C(=S)/N=c1\ssc(=Nc2ccccc2)n1C | > 100 µM | – |
| CC(C)OP(=O)(OC(C)C)/C(F)=N/Nc1ccc([N+](=O)[O-])cc1 | > 100 µM | – |
| CCCCc1ccc(Nc2nc3c(ncn3COCCBr)c(=O)[nH]2)cc1 | > 100 µM | – |
| O=C(OC1C(Oc2ccccc2COC(=O)C2(O)C=CCCC2=O)OC(CO)C(O)C1O)c1ccccc1 (stereo not given) | > 100 µM | – |
| CCOC(=O)C(C(=O)OCC)P(=S)(S)c1ccccc1 (stereo not given) | > 100 µM | – |
| CC(C)(C(=O)NCC(F)(F)C(F)(F)F)C(=O)N[C@@H]1C(=O)Nc2ccccc2-c2ccccc21 | > 100 µM | > 100 µM |
| COc1ccc(/C=C2\C(=O)NC(=O)c3ccccc32)cc1OC | > 100 µM | – |
| COc1ccc(N(CN2C(=O)CCC2OC)C(C)=O)cc1 (stereo not given) | > 100 µM | – |
| O=C1c2ccccc2C(=O)c2nc3c(O)cccc3cc21 | > 100 µM | – |
| O=C1OC(Cl)C(N=P(c2ccccc2)(c2ccccc2)c2ccccc2)=C1Cl (stereo not given) | > 100 µM | – |
| N=C(N)c1ccc(-c2ccc(-c3ccccc3)s2)s1 | 1.97 µM | 0.173 µM |
| CN(C)CCNS(=O)(=O)N(C)C | > 100 µM | – |
| Cn1cc(NC(=O)c2cc(NC(=O)CCCCCCCCCC(=O)Nc3cc(C(=O)Nc4cc(C(=O)NCCC(=N)N)n(C)c4)n(C)c3)cn2C)cc1C(=O)NCCC(=N)N | 46.3 µM | – |
| c1cncc(CNCCN2CCNCC2)c1 | > 100 µM | – |
| O=C1C(c2ccccc2)=[N+]([O-])c2ccc(Cl)cc21 | > 100 µM | – |
| Cc1ccc(C(=O)N/N=C(\N=Nc2cccc(C)c2)c2ccc(N(CCC#N)CCC#N)cc2C)cc1 | > 100 µM | – |

| Structure (SMILES) | TGI | GI50 |
| --- | --- | --- |
| CCOC(=O)c1ccc(N=Cc2ccc(N(CCC#N)CCC#N)cc2)cc1 | > 100 µM | – |
| C#CC#CC#CC#CC#CC#CC#CC#CC[C@@H]1OC[C@H](COC(=O)O[C@@H](C(=O)O[C@H]2C[C@@]3(O)[C@@H](OC(=O)c4ccccc4)[C@@H]4[C@]5(OC(C)=O)CO[C@@H]5C[C@H](O)[C@@]4(C)C(=O)[C@H](OC(C)=O)C(=C2C)C3(C)C)[C@@H](NC(=O)c2ccccc2)c2ccccc2)O1 | > 25 µM | 1.58 µM |
| Cc1c(C)n(COCCO)c2ncnc(N)c12 | > 100 µM | – |
| C=C1C(=O)C23CC1CCC2C12CO[C@H](O)[C@H]1C(C)(C)[C@H](OC(C)=O)C[C@H]2OC3=O (stereo not given in full) | > 100 µM | – |
| O=[N+]([O-])/C(C(Cl)=C(Cl)Cl)=C(\Nc1cccc2ccccc12)n1nnc2ccccc21 | > 100 µM | – |
| N#Cc1c(=N)cc2c3ccccc3oc3c(C#N)c(N)[nH]c1c32 | > 100 µM | – |
| CCN(CC)c1ccc2cc(-c3nc4ccccc4n3C)c(=O)oc2c1 | > 100 µM | – |
| NS(=O)(=O)c1ccc(N=Nc2c(O)[nH]c3ccc(Cl)cc23)cc1 | > 25 µM | 17.7 µM |
| O=C1C2=C(C(c3ccccc3)=C1c1ccccc1)c1ccccc1C1(c3ccccc3)C2=C(O)C(c2ccccc2)=C1c1ccccc1 (stereo not given) | > 100 µM | – |
| CC1(C)OCC[C@@H]1[Si](C)(C)C | > 100 µM | – |
| Cc1ccc2c(/C=C/c3ccc(N(C)C)cc3)ccnc2c1C | 40.9 µM | – |
| CCOC(=O)c1ccc(C(=O)/C(C#N)=C2\CCCN2)n1C | > 100 µM | – |
| Cc1ccc(I)cc1N=C=S | 71.9 µM | – |
| CC[O-].CC[O-].CN(C)c1ccc([O-])cc1.CN(C)c1ccc([O-])cc1.[Ti+4] | > 100 µM | 42.6 µM |
| CCOC(=O)C(C(=O)OCC)C1C=CCC2c3ccccc3COCC21 (stereo not given) | > 100 µM | – |
| CCC(C)C1NC(=O)C(NC(=O)C(CC(C)C)N(C)C(=O)[C@@H]2C=CCN2C(=O)[C@H](C)O)C(C)OC(=O)[C@H](Cc2ccc(OC)cc2)N(C)C(=O)[C@@H]2CCCN2C(=O)[C@H](CC(C)C)NC(=O)C(C)C(=O)[C@H](C(C)C)OC(=O)CC1O (stereo not given in full) | 0.025 µM | – |
| O=C1NC(N/N=C\C(O)C(O)C(O)C(O)CO)=N/C1=C\c1ccc(Cl)cc1 (stereo not given) | > 89.3 µM | – |
| CCC(C)CN=C(N)c1ccc(N2CCN(c3ccc(C(N)=NCC(C)CC)cc3)CC2)cc1 (stereo not given) | 95.7 µM | 27.9 µM |
| C=C1CC[C@]2(C)[C@H](CC[C@@]34C[C@@H](CC[C@H]32)[C@@H](C(=O)O)C4)C1(C)C | > 12.5 µM | – |
| O=C1c2ccccc2CC12CCC1(CC2)OCCO1 | > 100 µM | – |
| Nc1c(C(=O)N/N=C/c2ccco2)cnn1-c1ccnc2c(C(F)(F)F)cccc12 | > 100 µM | 54.2 µM |
| Cc1cccc(-n2cnc3cc(C(=O)N4CCCCC4)ccc32)c1 | > 100 µM | > 100 µM |
| COc1cc2c(cc1OCCCCCN1CCN(CCCCCOc3cc4c(cc3OC)C(=O)C3CCC[C@H]3C=N4)CC1)N=C[C@@H]1CCCC1C2=O (stereo not given in full) | > 100 µM | 28.2 µM |

| Structure (SMILES) | TGI | GI50 |
| --- | --- | --- |
| CCCCCCCCn1ccc2cc(NC(=O)Cn3cc(CN4CCN(CC)CC4)nn3)ccc21 | 3.66 µM | 1.83 µM |
| CCCCCCCCCCCCCCCC(=O)Nc1ccn([C@@H]2O[C@H](CO)[C@@H](O)[C@@H]2C#N)c(=O)n1 | 42.9 µM | 18.1 µM |
| CCN(CC)C(=S)SS(=O)(=O)c1ccc(N)cc1 | > 100 µM | – |
| c1ccc(P2c3ccccc3Nc3ccccc32)cc1 | > 100 µM | – |
| CCOC(=O)/C=C/C1OC(C)(C)OC1/C=C/C(=O)OCC (stereo not given) | 86 µM | – |
| CO/C(=N\N=C\c1ccccc1F)c1ccncc1 | > 10 µM | – |
| N/N=c1\c2ccccc2c2ccc3c4ccccc4/c(=N\N)c3c12 | > 100 µM | – |
| NC1(P(=O)(O)O)CCCCC1 | > 100 µM | – |
| COc1ccc(C2NC(=O)c3cc4c(cc3N2)OCO4)cc1 (stereo not given) | > 100 µM | 11.7 µM |
| C[C@]12CCC(=O)C(O)=C1CCC2=O | > 100 µM | – |
| O=c1[nH]c(=O)n(C2CC(O)C(CO)O2)cc1/C=C/Br (stereo not given) | > 100 µM | – |
| O=C(NCCn1ccnn1)Nc1ccccc1 | > 100 µM | – |
| COC(=O)C(C)NP(=O)(OCc1ccc(Cn2cnc3c(N)ncnc32)cc1)Oc1ccccc1 (stereo not given) | > 100 µM | 70 µM |
| CC(=O)Nc1ccc(C(=O)NN2C(=O)C(Cl)C2c2cc(Br)cc(Br)c2O)cc1 (stereo not given) | > 100 µM | – |
| C=C(C)[C@@H]1CC[C@]2(C(N)=O)CC[C@]3(C)[C@H](CC[C@@H]4[C@@]5(C)C/C(=C/c6cccnc6)C(=O)C(C)(C)[C@@H]5CC[C@]43C)[C@@H]12 | > 100 µM | 12.6 µM |
| O=C(O)C(CCc1ccccc1)N1C(=O)c2ccccc2C1=O (stereo not given) | > 100 µM | – |
| CCOC(=O)C(/C(=N/NC(=O)OC)C(=O)Nc1ccc(C(C)=O)cc1)c1cnc2ccccc2n1 (stereo not given) | > 100 µM | – |
| CC(=O)/C(=C\c1ccccc1)C(=O)Nc1ccccc1 | > 100 µM | – |
| O=C(Nc1cccc([N+](=O)[O-])c1)/C(=N\NC(=O)c1ccncc1)c1nc2ccc([N+](=O)[O-])cc2[nH]c1=O | > 100 µM | – |
| CC(=O)OC1COC(n2nc(N)nc2C)C(OC(C)=O)C1OC(C)=O (stereo not given) | > 100 µM | – |
| CCCCCCCC/C=C/CCCCCCCC(=O)N(O)C1CC(n2cc(C)c(=O)[nH]c2=O)OC1CO (stereo not given) | 30.5 µM | – |
